Data: the supplement of paper PMC7826260
Some of the results follow. The data describe in vitro nicking of single-stranded DNA by Rep domains (1 h at 37 °C, 3 µM enzyme); the outer parts of the 90-letter strands are left off. Uncut reads are compared with the no-enzyme pool on a log2 scale; the lower, the more was cut; hits are not called. Shares of all reads are compared; uncut strands gain when others are lost, and binding without cutting may add a little.

How the values were obtained:
Assay in all cases: uncleaved DNA left, log2 of reads against the no-enzyme library (log2 ratio); higher = less cleavage (more negative = more Rep cleavage of the k-mer); sequences stand for … in CTCGTCCG…ACCGGAGA
[1] = tested on: T1, Rep nickase domain of Muscovy duck circovirus
T1 sequence (residues 1-111 of Rep, tag left off): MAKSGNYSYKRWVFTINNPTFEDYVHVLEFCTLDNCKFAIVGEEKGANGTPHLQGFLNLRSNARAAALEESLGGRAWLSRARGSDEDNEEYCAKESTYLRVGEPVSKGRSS
Experimental: (§1)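 A pool of 90-nt single-stranded DNAs with seven random bases just before the constant AC of the nick site (name = the seven bases) was cut by 3 µM recombinant His6-SUMO-tagged Rep nickase domain (300 nM DNA, 50 mM HEPES pH 8.0, 50 mM NaCl, 1 mM MnCl2, 1 h, 37 °C, three replicates). Uncut DNA was amplified and sequenced.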

[2] = tested on: T2, Rep nickase domain of banana bunchy top virus
T2 sequence (residues 1-94 of Rep, tag left off): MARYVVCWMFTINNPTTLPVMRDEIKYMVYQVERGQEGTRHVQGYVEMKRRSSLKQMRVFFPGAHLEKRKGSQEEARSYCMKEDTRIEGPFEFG
Experimental: as §1

[3] = tested on: T3, Rep nickase domain of cabbage leaf curl virus
T3 sequence (residues 1-116 of Rep, tag left off): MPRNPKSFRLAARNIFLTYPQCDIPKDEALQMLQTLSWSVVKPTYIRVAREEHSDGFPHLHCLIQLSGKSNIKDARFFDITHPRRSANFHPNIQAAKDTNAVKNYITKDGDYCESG
Experimental: as §1

[4] = tested on: T4, Rep nickase domain of chickpea chlorotic dwarf virus
T4 sequence (residues 1-124 of Rep, tag left off): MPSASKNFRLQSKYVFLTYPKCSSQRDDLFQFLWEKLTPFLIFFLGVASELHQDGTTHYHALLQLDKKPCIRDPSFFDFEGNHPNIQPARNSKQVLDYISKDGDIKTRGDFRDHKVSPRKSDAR
Experimental: as §1

[5] = tested on: T5, Rep nickase domain of faba bean necrotic yellows virus
T5 sequence (residues 1-98 of Rep, tag left off): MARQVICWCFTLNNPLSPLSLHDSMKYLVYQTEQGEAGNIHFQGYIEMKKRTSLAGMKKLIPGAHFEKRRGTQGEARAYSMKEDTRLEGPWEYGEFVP
Experimental: as §1

[6] = tested on: T6, Rep nickase domain of maize striate mosaic virus
T6 sequence (residues 1-117 of Rep, tag left off): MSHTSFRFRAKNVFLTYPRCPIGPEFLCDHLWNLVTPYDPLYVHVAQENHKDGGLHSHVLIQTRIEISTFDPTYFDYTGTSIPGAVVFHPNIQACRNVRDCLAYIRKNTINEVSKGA
Experimental: as §1

[7] = tested on: T7, Rep nickase domain of porcine circovirus 2
T7 sequence (residues 2-116 of Rep, tag left off): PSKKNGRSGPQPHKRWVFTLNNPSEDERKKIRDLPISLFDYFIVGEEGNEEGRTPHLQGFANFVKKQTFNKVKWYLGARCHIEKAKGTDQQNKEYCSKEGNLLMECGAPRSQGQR
Experimental: as §1

[8] = tested on: T8, Rep nickase domain of tomato golden mosaic virus
T8 sequence (residues 1-124 of Rep, tag left off): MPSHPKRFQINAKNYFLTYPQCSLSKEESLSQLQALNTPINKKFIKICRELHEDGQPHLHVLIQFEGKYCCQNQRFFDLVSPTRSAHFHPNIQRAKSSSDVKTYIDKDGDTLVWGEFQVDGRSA
Experimental: as §1

[9] = tested on: T9, Rep nickase domain of tomato yellow leaf curl virus
T9 sequence (residues 1-136 of Rep, tag left off): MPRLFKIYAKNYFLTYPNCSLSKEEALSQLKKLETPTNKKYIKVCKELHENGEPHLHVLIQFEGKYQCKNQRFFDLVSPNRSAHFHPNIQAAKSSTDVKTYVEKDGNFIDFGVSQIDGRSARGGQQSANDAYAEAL
Experimental: as §1

[10] = tested on: T10, Rep nickase domain of wheat dwarf virus
T10 sequence (residues 1-137 of Rep, tag left off): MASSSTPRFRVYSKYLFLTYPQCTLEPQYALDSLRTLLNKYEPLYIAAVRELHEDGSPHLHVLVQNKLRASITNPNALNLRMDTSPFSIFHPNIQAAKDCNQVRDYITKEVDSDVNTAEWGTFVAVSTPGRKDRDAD
Experimental: as §1

Row | Sequence | uncleaved DNA left (log2) [1] | uncleaved DNA left (log2) [2] | uncleaved DNA left (log2) [3] | uncleaved DNA left (log2) [4] | uncleaved DNA left (log2) [5] | uncleaved DNA left (log2) [6] | uncleaved DNA left (log2) [7] | uncleaved DNA left (log2) [8] | uncleaved DNA left (log2) [9] | uncleaved DNA left (log2) [10]
1 | GCGACTA | -0.146 | 0.099 | 0.113 | 0.728 | -0.0424 | 1.7 | 0.107 | -0.00459 | -0.146 | 0.00508
2 | GCCAGTT | -0.063 | 0.0122 | 0.0764 | -0.463 | -0.00144 | 0.184 | -0.148 | -0.014 | -0.0663 | -0.11
3 | TGAGTCA | 0.0425 | 0.0672 | 0.179 | -0.291 | 0.0541 | 0.0923 | -0.0442 | 0.0177 | 0.0103 | 0.0862
4 | TGGTAGT | -1.04 | -0.0128 | 0.201 | 0.149 | -0.234 | 0.134 | -3.25 | 0.0544 | 0.114 | 0.0711
5 | CGGTTGT | 0.0544 | -0.00509 | -0.0444 | 0.391 | -0.0397 | 0.846 | -0.187 | -0.0774 | -0.0403 | 0.0554
6 | GGGTCAA | 0.0971 | 0.155 | 0.966 | 2.04 | -0.0598 | 2.26 | 0.175 | -0.00442 | 0.0252 | 0.119
7 | CTAGTAG | 0.117 | 0.0266 | -0.681 | -0.577 | 0.0412 | -1.16 | 0.134 | -0.0596 | 0.00852 | 0.00743
8 | GGTCTTC | 0.0542 | 0.124 | 0.437 | 1.1 | -0.0647 | 1.76 | 0.0051 | -0.0287 | 0.122 | 0.122
9 | CGTCCTG | -0.101 | -0.11 | -0.0921 | 0.405 | -0.0792 | 1.01 | -0.0549 | -0.178 | -0.0741 | 0.0398
10 | CATATAA | 0.0759 | 0.161 | -0.125 | -0.372 | 0.0306 | -0.773 | 0.162 | 0.0291 | 0.107 | 0.21
11 | TGGCTAC | -0.0294 | 0.00428 | 0.359 | 0.521 | 0.00212 | 1.4 | 0.0113 | 0.0866 | -0.0336 | 0.096
12 | GGATGAT | 0.0206 | 0.21 | 0.722 | 1.67 | 0.0362 | 2.15 | -0.0792 | 0.0053 | 0.0777 | 0.256
13 | ATAGGGC | 0.0352 | -0.102 | 0.00647 | 0.436 | -0.0728 | -0.23 | -0.00594 | -0.0712 | -0.133 | -0.149
14 | TATAGAA | 0.0807 | -0.0739 | 0.176 | -0.39 | 0.119 | -0.544 | -0.00698 | 0.0996 | 0.0275 | 0.0168
15 | ATAACAA | 0.0102 | 0.0757 | -0.515 | -1.1 | -0.0468 | -0.627 | 0.0378 | 0.0348 | -0.0218 | 0.0804
16 | CTGTTTC | -0.0671 | 0.0682 | 0.0723 | -0.0617 | -0.0028 | -0.517 | -0.125 | -0.146 | -0.0329 | -0.00369
17 | AACCATC | -0.203 | -0.143 | -0.187 | -0.614 | -0.146 | -0.913 | -0.354 | -0.114 | -0.0709 | -0.0656
18 | CGCGCCA | -0.0679 | -0.0937 | -0.0789 | -0.0978 | -0.0834 | 0.103 | -0.0738 | -0.0279 | -0.0975 | -0.127
19 | ACAAAGG | 0.032 | 0.0359 | -0.535 | -0.271 | 0.0335 | -0.921 | 0.194 | 0.0276 | 0.0876 | 0.0584
20 | GGAATGA | 0.0471 | 0.154 | 0.762 | 1.54 | -0.00649 | 1.92 | 0.222 | 0.113 | 0.0789 | 0.142
21 | AGTCTGT | 0.142 | -0.0404 | 0.0797 | 0.744 | 0.0129 | 1.32 | -1.2 | 0.103 | -0.00622 | 0.0994
22 | CTAGACA | 0.0366 | 0.0707 | 0.253 | -0.998 | -0.00145 | 0.0706 | 0.0405 | -0.0232 | 0.0164 | 0.156
23 | TAGCTCT | 0.00994 | -0.0988 | -1.51 | -2.99 | 0.0204 | -0.283 | -3.32 | -0.164 | 0.0535 | -0.432
24 | TACTTCT | -3.66 | -3.32 | -3.08 | -3.26 | -0.199 | -1.21 | -4.08 | -0.667 | 0.0295 | -0.505
25 | ATAAATT | 0.0428 | 0.0241 | 0.111 | -2.75 | 0.0636 | -0.601 | -0.415 | -0.00849 | -0.0128 | -0.0278
26 | TGAAGCA | 0.0919 | 0.131 | 0.00921 | -0.557 | 0.097 | -0.65 | -0.252 | 0.169 | 0.0557 | 0.0688
27 | AGTGTGA | 0.13 | -0.00953 | -0.109 | -0.0693 | -0.031 | -0.456 | -0.127 | 0.0423 | -0.027 | -0.0217
28 | CCTCACT | -0.037 | -0.103 | -0.192 | -2.24 | -0.088 | -0.564 | -0.349 | 0.00432 | -0.159 | 0.00227
29 | GTATTCA | -0.125 | 0.039 | 0.353 | 0.797 | -0.00273 | 1.66 | 0.0518 | 0.0465 | 0.06 | 0.161
30 | TTGGCCT | -0.0161 | -0.0508 | -0.136 | -1.1 | -0.135 | -0.298 | -0.064 | -0.0998 | -0.02 | -0.0637
